Measured values published in publication PMC9911399, “Two distinct binding modes provide the RNA-binding protein RbFox with extraordinary sequence specificity”.
Residue numbers refer to the chain shown, from its start. The list shows a part of the results.

T1: RBFOX1 RRM RbFoxmut (Fox-RRM*) (Homo sapiens, UniProt Q9NWB1 109-208, R118D;E147R;N151S;E152T)
T1 sequence: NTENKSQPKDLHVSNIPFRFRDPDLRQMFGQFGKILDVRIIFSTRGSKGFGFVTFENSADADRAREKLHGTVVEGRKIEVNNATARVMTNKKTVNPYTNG

B1: CAUACGU (DNA:RNA)
RNA: GGGAGACCGGAAUUCAGAUUGUCCCAUACGUUUAAAUCCCGUCGUAGCCACCA
DNA 1: CAATCTGAATTCCGGTCTCCC
DNA 2: TGGTGGCTACGACGGGATT
B2: CAGCCAU (DNA:RNA)
RNA: B1 RNA with U27G, A28C, G30A
DNA 1: CAATCTGAATTCCGGTCTCCC
DNA 2: TGGTGGCTACGACGGGATT
B3: ACCUCGG (DNA:RNA)
RNA: B1 RNA with C25A, A26C, U27C, A28U, U31G
DNA 1: CAATCTGAATTCCGGTCTCCC
DNA 2: TGGTGGCTACGACGGGATT
B4: AAUAAUG (DNA:RNA)
RNA: B1 RNA with C25A, C29A, G30U, U31G
DNA 1: CAATCTGAATTCCGGTCTCCC
DNA 2: TGGTGGCTACGACGGGATT
B5: CCUAGCU (DNA:RNA)
RNA: B1 RNA with A26C, C29G, G30C
DNA 1: CAATCTGAATTCCGGTCTCCC
DNA 2: TGGTGGCTACGACGGGATT
B6: ACCACGU (DNA:RNA)
RNA: B1 RNA with C25A, A26C, U27C
DNA 1: CAATCTGAATTCCGGTCTCCC
DNA 2: TGGTGGCTACGACGGGATT
B7: UUGUGGU (DNA:RNA)
RNA: B1 RNA with C25U, A26U, U27G, A28U, C29G
DNA 1: CAATCTGAATTCCGGTCTCCC
DNA 2: TGGTGGCTACGACGGGATT
B8: GAAAAUU (DNA:RNA)
RNA: B1 RNA with C25G, U27A, C29A, G30U
DNA 1: CAATCTGAATTCCGGTCTCCC
DNA 2: TGGTGGCTACGACGGGATT
B9: ACUGUUU (DNA:RNA)
RNA: B1 RNA with C25A, A26C, A28G, C29U, G30U
DNA 1: CAATCTGAATTCCGGTCTCCC
DNA 2: TGGTGGCTACGACGGGATT
B10: UAUCCAU (DNA:RNA)
RNA: B1 RNA with C25U, A28C, G30A
DNA 1: CAATCTGAATTCCGGTCTCCC
DNA 2: TGGTGGCTACGACGGGATT
B11: AGGUACG (DNA:RNA)
RNA: GGGAGACCGGAAUUCAGAUUGUCCAGGUACGUUAAAUCCCGUCGUAGCCACCA
DNA 1: CAATCTGAATTCCGGTCTCCC
DNA 2: TGGTGGCTACGACGGGATT
B12: UCGGCGG (DNA:RNA)
RNA: B11 RNA with A25U, G26C, U28G, A29C, C30G
DNA 1: CAATCTGAATTCCGGTCTCCC
DNA 2: TGGTGGCTACGACGGGATT
B13: CGGGAAG (DNA:RNA)
RNA: B11 RNA with A25C, U28G, C30A
DNA 1: CAATCTGAATTCCGGTCTCCC
DNA 2: TGGTGGCTACGACGGGATT
B14: AGAACGG (DNA:RNA)
RNA: B11 RNA with G27A, U28A, A29C, C30G
DNA 1: CAATCTGAATTCCGGTCTCCC
DNA 2: TGGTGGCTACGACGGGATT
B15: UCAACAU (DNA:RNA)
RNA: B1 RNA with C25U, A26C, U27A, G30A
DNA 1: CAATCTGAATTCCGGTCTCCC
DNA 2: TGGTGGCTACGACGGGATT
B16: UAAAUAA (DNA:RNA)
RNA: B1 RNA with C25U, U27A, C29U, G30A, U31A
DNA 1: CAATCTGAATTCCGGTCTCCC
DNA 2: TGGTGGCTACGACGGGATT
B17: CUUACCC (DNA:RNA)
RNA: B1 RNA with A26U, G30C, U31C
DNA 1: CAATCTGAATTCCGGTCTCCC
DNA 2: TGGTGGCTACGACGGGATT
B18: UAUAAGA (DNA:RNA)
RNA: B1 RNA with C25U, C29A, U31A
DNA 1: CAATCTGAATTCCGGTCTCCC
DNA 2: TGGTGGCTACGACGGGATT
B19: UCGAUGU (DNA:RNA)
RNA: B1 RNA with C25U, A26C, U27G, C29U
DNA 1: CAATCTGAATTCCGGTCTCCC
DNA 2: TGGTGGCTACGACGGGATT
B20: AUCUAAA (DNA:RNA)
RNA: B11 RNA with G26U, G27C, C30A, G31A
DNA 1: CAATCTGAATTCCGGTCTCCC
DNA 2: TGGTGGCTACGACGGGATT
B21: ACUGUCA (DNA:RNA)
RNA: B11 RNA with G26C, G27U, U28G, A29U, G31A
DNA 1: CAATCTGAATTCCGGTCTCCC
DNA 2: TGGTGGCTACGACGGGATT
B22: UUGUUUA (DNA:RNA)
RNA: B11 RNA with A25U, G26U, A29U, C30U, G31A
DNA 1: CAATCTGAATTCCGGTCTCCC
DNA 2: TGGTGGCTACGACGGGATT
B23: UCGGGAA (DNA:RNA)
RNA: B11 RNA with A25U, G26C, U28G, A29G, C30A, G31A
DNA 1: CAATCTGAATTCCGGTCTCCC
DNA 2: TGGTGGCTACGACGGGATT
B24: UAAAGGG (DNA:RNA)
RNA: B1 RNA with C25U, U27A, C29G, U31G
DNA 1: CAATCTGAATTCCGGTCTCCC
DNA 2: TGGTGGCTACGACGGGATT
B25: CAGGUAA (DNA:RNA)
RNA: B1 RNA with U27G, A28G, C29U, G30A, U31A
DNA 1: CAATCTGAATTCCGGTCTCCC
DNA 2: TGGTGGCTACGACGGGATT
B26: UAGCCAU (DNA:RNA)
RNA: B1 RNA with C25U, U27G, A28C, G30A
DNA 1: CAATCTGAATTCCGGTCTCCC
DNA 2: TGGTGGCTACGACGGGATT
B27: AACGAUU (DNA:RNA)
RNA: B11 RNA with G26A, G27C, U28G, C30U, G31U
DNA 1: CAATCTGAATTCCGGTCTCCC
DNA 2: TGGTGGCTACGACGGGATT
B28: CGAAGUG (DNA:RNA)
RNA: B11 RNA with A25C, G27A, U28A, A29G, C30U
DNA 1: CAATCTGAATTCCGGTCTCCC
DNA 2: TGGTGGCTACGACGGGATT
B29: GGAGAGA (DNA:RNA)
RNA: B11 RNA with A25G, G27A, U28G, C30G, G31A
DNA 1: CAATCTGAATTCCGGTCTCCC
DNA 2: TGGTGGCTACGACGGGATT
B30: ACCGCCG (DNA:RNA)
RNA: B11 RNA with G26C, G27C, U28G, A29C
DNA 1: CAATCTGAATTCCGGTCTCCC
DNA 2: TGGTGGCTACGACGGGATT
B31: ACGAAAG (DNA:RNA)
RNA: B11 RNA with G26C, U28A, C30A
DNA 1: CAATCTGAATTCCGGTCTCCC
DNA 2: TGGTGGCTACGACGGGATT

target: T1, RBFOX1 RRM RbFoxmut (Fox-RRM*); experiment: EMSA; HiTS-Eq, 1 nM pool, 10 min; buffer printed only for the single-RNA assays: 10 mM Tris pH 7.5, 150 mM NaCl, 3.4 mM EDTA, 0.001% NP-40, 30 C; conditions: tags: His6 N-terminal (pET28a); label: 5' 32P
Procedure, shortened: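 Relative association constants, normalised to the cognate motif, were derived by comparing read counts of each RNA species with those of the control reaction. The RNA sequenced was the free fraction, separated by 8% native PAGE after a 10 min equilibration in 50 µL of 1 nM 5′-radiolabelled RNA (7 randomized nucleotides) with increasing concentrations of purified wild-type or mutant RbFox RRM.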

Q: How did the binding signal turn out when B1 was run?
A: 0.114 KA relative to UGCAUGU

Q: With B2 as the binder, how does the binding signal read?
A: 0.0919 KA relative to UGCAUGU

Q: With B3 as the binder, how does the binding signal read?
A: 0.0686 KA relative to UGCAUGU

Q: With B4 as the binder, how does the binding signal read?
A: 0.0923 KA relative to UGCAUGU

Q: Which binding signal does the source give for B5 here?
A: 0.111 KA relative to UGCAUGU

Q: How did the binding signal turn out when B6 was run?
A: 0.105 KA relative to UGCAUGU

Q: Which binding signal does the source give for B7 here?
A: 0.164 KA relative to UGCAUGU

Q: For B8, which binding signal is on record?
A: 0.0686 KA relative to UGCAUGU

Q: B9 was tested. Which binding signal did it give?
A: 0.11 KA relative to UGCAUGU

Q: With B10 as the binder, how does the binding signal read?
A: 0.0794 KA relative to UGCAUGU

Q: With B11 as the binder, how does the binding signal read?
A: 0.258 KA relative to UGCAUGU

Q: Which binding signal does the source give for B12 here?
A: 0.109 KA relative to UGCAUGU

Q: Which binding signal does the source give for B13 here?
A: 0.106 KA relative to UGCAUGU

Q: B14 was tested. Which binding signal did it give?
A: 0.159 KA relative to UGCAUGU

Q: Which binding signal does the source give for B15 here?
A: 0.0815 KA relative to UGCAUGU

Q: Which binding signal does the source give for B16 here?
A: 0.0779 KA relative to UGCAUGU

Q: Which binding signal does the source give for B17 here?
A: 0.078 KA relative to UGCAUGU

Q: How did the binding signal turn out when B18 was run?
A: 0.0718 KA relative to UGCAUGU

Q: Which binding signal does the source give for B19 here?
A: 0.119 KA relative to UGCAUGU

Q: How did the binding signal turn out when B20 was run?
A: 0.114 KA relative to UGCAUGU

Q: B21 was tested. Which binding signal did it give?
A: 0.101 KA relative to UGCAUGU

Q: For B22, which binding signal is on record?
A: 0.178 KA relative to UGCAUGU

Q: B23 was tested. Which binding signal did it give?
A: 0.115 KA relative to UGCAUGU

Q: With B24 as the binder, how does the binding signal read?
A: 0.0714 KA relative to UGCAUGU

Q: With B25 as the binder, how does the binding signal read?
A: 0.106 KA relative to UGCAUGU

Q: Which binding signal does the source give for B26 here?
A: 0.0774 KA relative to UGCAUGU

Q: Which binding signal does the source give for B27 here?
A: 0.0525 KA relative to UGCAUGU

Q: How did the binding signal turn out when B28 was run?
A: 0.101 KA relative to UGCAUGU

Q: Which binding signal does the source give for B29 here?
A: 0.073 KA relative to UGCAUGU

Q: With B30 as the binder, how does the binding signal read?
A: 0.0903 KA relative to UGCAUGU

Q: With B31 as the binder, how does the binding signal read?
A: 0.103 KA relative to UGCAUGU
